Source: the supplement of paper PMC9446081
The whole screen tested about 39,000 compounds, of which about 220 (0.56%) showed activity. The list shows a part of the results.
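Note: static incubation at 37 °C against the wild-type strain, values averaged over two biological replicates.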

What follows are compounds tested on Escherichia coli K-12 BW25113 (assay: relative growth (OD600 normalised to plate interquartile mean) (fraction); higher = less growth inhibition, active = 0.2 or less). Conditions: 50 µM; LB; incubation time: overnight (16-24 h).
For `C[C@@H]1CN([C@@H](C)CO)C(=O)c2cc(/C=C/c3ccccc3)cnc2O[C@@H]1CN(C)C(=O)CN1CCOCC1`, the relative growth was inactive: 0.997. In the case of `COCC#Cc1cnc2c(c1)C(=O)N([C@H](C)CO)C[C@@H](C)[C@@H](CN(C)S(=O)(=O)c1cccc(OC)c1)O2`, the relative growth is reported as inactive: 0.996. In the case of `C[C@@H]1CCCCO[C@@H](CN(C)C(=O)Nc2ccc(C(F)(F)F)cc2)[C@@H](C)CN([C@H](C)CO)C(=O)c2cc(NS(=O)(=O)c3cn(C)cn3)ccc2O1`, the relative growth is reported as inactive: 0.942. `C[C@@]1(C2CC2)Cc2cnnn2CCN1` was tested, and the relative growth was inactive: 1.01. In the case of `CC(C)NC(=O)Nc1ccc2c(c1)C(=O)N([C@@H](C)CO)C[C@H](C)[C@H](CN(C)CC1CCCCC1)OCCCC[C@H](C)O2`, the relative growth is reported as inactive: 1.01. In the case of `Cc1cccc(C)c1Nc1nc2c(C)cc(C)c(C)c2s1`, the relative growth is reported as inactive: 0.943. For `O=C(C[C@@H]1C[C@H]2c3cc(NC(=O)c4ccc5c(c4)OCO5)ccc3O[C@H]2[C@H](CO)O1)NCCN1CCCCC1`, the relative growth was inactive: 1.01. In the case of `COCC#Cc1cnc2c(c1)C(=O)N([C@@H](C)CO)C[C@@H](C)[C@@H](CN(C)S(=O)(=O)c1cccc(OC)c1)O2`, the relative growth is reported as inactive: 0.978. For `CCS(=O)(=O)N1CC[C@]2(CC1)CN([C@@H](CO)c1c2c2ccc(cc2n1C)OC)C(=O)Nc1c(noc1C)C`, the relative growth was inactive: 0.996. `C[C@H](CO)N1C[C@H](C)[C@H](CN(C)Cc2ccc(-c3ccccc3)cc2)Oc2ccc(NC(=O)Cn3cnnn3)cc2CC1=O` was tested, and the relative growth was inactive: 1.01. For `CCCCOc1cc(C(=O)NCCN(CC)CC)c2ccccc2n1.Cl`, the relative growth was inactive: 1.12. With `C[C@@H]1CN([C@H](C)CO)S(=O)(=O)c2ccc(/C=C/c3ccccc3)cc2O[C@H]1CN(C)C(=O)CN1CCOCC1` the relative growth was inactive: 1.01. `COc1ccc(NC(=O)Nc2ccc3c(c2)C(=O)N([C@H](C)CO)C[C@@H](C)[C@H](CN(C)C(=O)Nc2c(C)noc2C)OCCCC[C@@H](C)O3)cc1` was tested, and the relative growth was inactive: 0.987. In the case of `COc1ccc(CN(C)C[C@H]2OCCCC[C@H](C)Oc3ccc(NS(=O)(=O)c4ccc(OC)cc4)cc3C(=O)N([C@H](C)CO)C[C@H]2C)cc1`, the relative growth is reported as inactive: 1.01. With `COc1ccc(OCc2c(-c3ccccc3)nnn2CC(=O)NS(=O)(=O)c2cccc(C#N)c2)cc1` the relative growth was inactive: 0.974. For `C[C@@H]1CCCCO[C@H](CN(C)Cc2ccc(C(=O)Nc3ccccc3N)cc2)[C@@H](C)CN([C@H](C)CO)C(=O)c2cc(NS(=O)(=O)c3ccc(Cl)cc3)ccc2O1`, the relative growth was inactive: 0.988. With `C[C@@H]1CN([C@@H](C)CO)C(=O)Cc2cc(NC(=O)Nc3cccc4ccccc34)ccc2O[C@@H]1CN(C)S(=O)(=O)c1ccc(F)cc1` the relative growth was inactive: 0.994. `C[C@@H]1CN([C@@H](C)CO)C(=O)c2cc(NS(C)(=O)=O)ccc2O[C@@H]1CN(C)C(=O)Nc1ccc(F)cc1` was tested, and the relative growth was inactive: 1.02. In the case of `C[C@@H]1CN([C@H](C)CO)C(=O)c2cc(NC(=O)Nc3ccc(C(F)(F)F)cc3)ccc2O[C@@H](C)CCCCO[C@H]1CN(C)S(=O)(=O)c1ccc(F)cc1`, the relative growth is reported as inactive: 1.05. `C[C@H](CO)N1C[C@H](C)[C@@H](CN(C)Cc2ccccc2)OCCCC[C@H](C)Oc2ccc(NC(=O)Nc3ccccc3)cc2C1=O` was tested, and the relative growth was inactive: 0.99. `O=C(CN1CCOCC1)N[C@H]1CC[C@H](CCn2cc(C3CC3)nn2)O[C@@H]1CO` was tested, and the relative growth was inactive: 1.02. For `CN(C)CCCNC(=O)C[C@H]1CC[C@@H]2[C@H](COc3ccc(NC(=O)NC4CCCC4)cc3C(=O)N2C)O1`, the relative growth was inactive: 1.02. For `C[C@H]1CCCCO[C@@H](CN(C)C(=O)Nc2ccc3c(c2)OCO3)[C@@H](C)CN([C@@H](C)CO)C(=O)c2cc(NC(=O)CCC(F)(F)F)ccc2O1`, the relative growth was inactive: 0.978. For `Cc1ccc(NC(=O)CC(C)C)cc1`, the relative growth was inactive: 1.02. In the case of `C[C@H]1CN([C@@H](C)CO)C(=O)CCCn2cc(nn2)CO[C@H]1CN(C)S(=O)(=O)c1ccccc1C#N`, the relative growth is reported as inactive: 0.997. With `C[C@@H]1CN([C@H](C)CO)C(=O)c2cc(NC(=O)Nc3ccc(C(F)(F)F)cc3)ccc2O[C@@H](C)CCCCO[C@H]1CN(C)C(=O)NC1CCCCC1` the relative growth was inactive: 1.04. For `C[C@H](CO)N1C[C@H](C)[C@H](CN(C)C(=O)Nc2ccc(F)cc2)Oc2ccc(NS(=O)(=O)c3cn(C)cn3)cc2C1=O`, the relative growth was inactive: 0.969. For `CCOC(=O)C[C@@H](N)c1ccccc1Cl`, the relative growth was inactive: 1.02. For `C[C@@H]1CN([C@H](C)CO)C(=O)c2cccc(NC(=O)Nc3ccc(C(F)(F)F)cc3)c2O[C@@H]1CN(C)C(=O)Nc1ccc(F)cc1`, the relative growth was inactive: 0.991. `CC1CC2C(C(O)CC3(C)C2CCC3(O)C(=O)COC(=O)CCC(=O)[O-])C2(C)C=CC(=O)C=C12.[Na+]` (stereo not given) was tested, and the relative growth was inactive: 1.05. `C[C@H](CO)N1C[C@H](C)[C@@H](CN(C)Cc2ccc(C(F)(F)F)cc2)Oc2ccc(NC(=O)NC3CCCCC3)cc2C1=O` was tested, and the relative growth was inactive: 1.02. With `CCOC(=O)[C@H]1CCCN([C@H]2CS(=O)(=O)C[C@@H]2S(=O)(=O)c2ccccc2)C1` the relative growth was inactive: 1.02. For `Cc1noc(C)c1NC(=O)N(C)C[C@H]1OCCCC[C@H](C)Oc2ccc(NC(=O)NC3CCCCC3)cc2C(=O)N([C@H](C)CO)C[C@@H]1C`, the relative growth was inactive: 0.998. `C[C@@H]1CN([C@@H](C)CO)C(=O)c2cc(NC(=O)Cc3cn(C)c4ccccc34)ccc2O[C@H]1CN(C)Cc1ccc(C(F)(F)F)cc1` was tested, and the relative growth was inactive: 1.03. `O=c1c(O[C@@H]2O[C@H](CO)[C@@H](O)[C@H](O)[C@H]2O)c(-c2ccc(O)cc2)oc2cc(O)cc(O)c12` was tested, and the relative growth was inactive: 0.96. For `Cc1noc(C)c1S(=O)(=O)N(C)C[C@@H]1OCCCC[C@@H](C)Oc2ccc(NC(=O)Nc3ccc(F)cc3)cc2C(=O)N([C@H](C)CO)C[C@H]1C`, the relative growth was inactive: 1.01. For `C[C@@H]1CN([C@@H](C)CO)S(=O)(=O)c2ccc(C#CCN(C)C)cc2O[C@@H]1CN(C)C(=O)CN(C)C`, the relative growth was inactive: 1.02. `C[C@@H]1CN([C@H](C)CO)C(=O)Cc2cc(NC(=O)Cc3ccccc3)ccc2O[C@@H]1CN(C)Cc1ccc(Cl)c(Cl)c1` was tested, and the relative growth was inactive: 1.03. In the case of `CCCNC(=O)N1C[C@@H](O)COC[C@@H]2O[C@H](CC(=O)N3CCOCC3)CC[C@H]21`, the relative growth is reported as inactive: 1. With `O=C(C[C@H]1C[C@H]2c3cc(NC(=O)Cc4ccncc4)ccc3O[C@H]2[C@H](CO)O1)NCc1ccc2c(c1)OCO2` the relative growth was inactive: 1.01. `O=C1NCC(=O)N2[C@@H]1C[C@@H](C(=O)O)[C@H]2c1ccc(O)cc1` was tested, and the relative growth was inactive: 0.983. With `C[C@@H]1CCCCO[C@H](CN(C)Cc2ccc(C(F)(F)F)cc2)[C@H](C)CN([C@@H](C)CO)C(=O)c2cc(NC(=O)CCCN(C)C)ccc2O1` the relative growth was inactive: 1.02. For `CNC[C@H]1Oc2cc(C#CC(C)(C)O)ccc2S(=O)(=O)N([C@H](C)CO)C[C@H]1C`, the relative growth was inactive: 1.01. In the case of `CN1CCN(C(=O)C[C@@H]2C=C[C@@H](NC(=O)Cc3ccccn3)[C@@H](CO)O2)CC1`, the relative growth is reported as inactive: 1.03. In the case of `CCC(=O)Nc1ccc2c(c1)OC[C@@H](C)N(C(=O)CN1CCOCC1)C[C@H](C)[C@@H](OC)CN(C)C2=O`, the relative growth is reported as inactive: 1.01. `COc1ccc(S(=O)(=O)N(C)C[C@@H]2Oc3ccc(NC(=O)NC(C)C)cc3C(=O)N([C@H](C)CO)C[C@H]2C)cc1` was tested, and the relative growth was inactive: 0.983. For `C[C@@H]1CCCCO[C@H](CN(C)C(=O)Nc2ccc(F)cc2)[C@H](C)CN([C@@H](C)CO)C(=O)c2cc(NC(=O)CCC(F)(F)F)ccc2O1`, the relative growth was inactive: 0.978. `C[C@@H]1CCCCO[C@@H](CN(C)Cc2ccc(Cl)c(Cl)c2)[C@H](C)CN([C@@H](C)CO)C(=O)c2cc(NS(C)(=O)=O)ccc2O1` was tested, and the relative growth was inactive: 1.05. For `C[C@@H]1CN([C@H](C)CO)S(=O)(=O)c2ccc(-c3cccc(C(=O)N(C)C)c3)cc2O[C@@H]1CN(C)C(=O)Cc1ccccn1`, the relative growth was inactive: 0.994. In the case of `C=CCC[C@H](Cc1ccc(F)cc1)C(=O)OC[C@H](Cc1c[nH]c2ccccc12)NC(=O)[C@@H](CC=C)CC(=O)N[C@H](CO)Cc1ccccc1`, the relative growth is reported as inactive: 0.997. In the case of `CC#CC(=O)NS(=O)(=O)c1ccccc1`, the relative growth is reported as inactive: 0.981. `CO[C@H]1CCN(C(=O)CN(C)C)[C@@H]2CCO[C@@H]12` was tested, and the relative growth was inactive: 0.982. With `C[C@H]1CCCCO[C@H](CN(C)C(=O)NC2CCCCC2)[C@@H](C)CN([C@@H](C)CO)C(=O)c2cc(NS(=O)(=O)c3ccccc3)ccc2O1` the relative growth was inactive: 1.02. In the case of `Cc1ccc(S[C@]2(C(=O)NCC(C)C)CC(=O)N(C3Cc4ccccc4C3)[C@@H]2c2ccc(CO)cc2I)cc1`, the relative growth is reported as inactive: 1.01. In the case of `CN(C)CC(=O)N[C@@H]1CC[C@@H](CCNC(=O)C2CCC2)O[C@@H]1CO`, the relative growth is reported as inactive: 1.03. `C[C@@H]1CN([C@@H](C)CO)C(=O)Cc2cc(NC(=O)Nc3ccc4c(c3)OCO4)ccc2O[C@@H]1CN(C)Cc1ccc(Oc2ccccc2)cc1` was tested, and the relative growth was inactive: 1.02. In the case of `C[C@@H]1CN([C@H](C)CO)C(=O)c2cccc(NC(=O)Nc3ccccc3)c2O[C@H]1CN(C)S(=O)(=O)c1cn(C)cn1`, the relative growth is reported as inactive: 1.05. For `Nc1nc2ncc(=O)[nH]c2c(=O)[nH]1`, the relative growth was inactive: 0.858. In the case of `Cc1noc(C)c1S(=O)(=O)Nc1ccc2c(c1)C(=O)N([C@H](C)CO)C[C@H](C)[C@@H](CN(C)S(=O)(=O)c1ccc(Cl)cc1)O2`, the relative growth is reported as inactive: 0.938. In the case of `CC(C)(O)C#Cc1ccc([C@@H]2[C@@H](CO)N3CCCCN(S(C)(=O)=O)C[C@@H]23)cc1`, the relative growth is reported as inactive: 1.01.
